Assay results reported in the supplement of paper PMC10126150.
Values marked as one replicate rest on one cluster of the flow cell; about a third of the high ones do not repeat.

tested on: ATP; assay: switch fluorescence ratio, 500 uM ATP over buffer (Cy3 cluster intensity, sum of 5 cycles each) (fold (ratio)); higher = stronger signal-on switching upon ATP binding; sequences stand for … in TCGTCGGCAGCGTCAGATGTGTATAAGAGACAGTTTTTTTTTTTTTTTTTTTTTTTTT…TC; settings: aptamer strand: ATP DNA aptamer (quencher-CACCTGGGGGAGTATTGCGGAGGAAGG + anchor), 100 nM annealed; ATP concentration: 500 uM; one replicate
How it was run: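 Clusters with intensities outside 100-1000 RFU were excluded. The remaining Cy3-labelled switching-strand clusters on a modified Illumina MiSeq flow-cell had been annealed to 100 nM quencher-labelled ATP aptamer and imaged in selection buffer, then after 15 min with 500 uM ATP at 22 °C, for five cycles separated by NaOH stripping and re-annealing. The fluorescence ratio, averaged per switch-domain sequence, is each cluster's summed target-cycle Cy3 intensity over its summed buffer-cycle Cy3 intensity.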
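Also: ATP exposure 15 min at 22 °C before imaging.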

Sequence	switch fluorescence ratio
GCCATCACAT	1.01
GCCATCATCC	0.991
GCCATGAGGT	1.01
GCCATGGGAA	1.01
GCCATTAGGG	1.02
GCCATTCGCG	1.04
GCCATTGGTA	1.01
GCCATTTATC	1.01
GCCCAATGGC	0.979
GCCCACGAAG	0.98
GCCCACGCCG	0.99
GCCCATCTAC	1.04
GCCCCGAAAG	1.03
GCCCCGTCCT	1.01
GCCCCTCGAT	1.05
GCCCGAATCC	1.08
GCCCGAGCCA	1.08
GCCCGATGCG	0.965
GCCCGATTCG	1.06
GCCCGCGCGC	1.1
GCCCGCGTT	1.17
GCCCGGTATG	1
GCCCGTTCTA	0.977
GCCCGTTTAT	1.05
GCCCTATGAC	0.976

Sequence	switch fluorescence ratio
GCCCTGTCAG	1.02
GCCCTTAGAA	0.983
GCCCTTCACC	1.08
GCCCTTTGGG	1.02
GCCGAAATAG	2.46
GCCGAGAATT	1.02
GCCGAGATCT	0.938
GCCGAGCTTT	1.03
GCCGAGGTCG	1.06
GCCGATCCGG	1.04
GCCGCCGAAC	1.15
GCCGCGCGCA	1.01
GCCGCGGACC	1.16
GCCGCGGCTG	0.981
GCCGCTATCG	1.09
GCCGGAGTCG	0.831
GCCGGCTTGG	0.963
GCCGGGAAAG	0.993
GCCGGGAGCG	1
GCCGGGCAAT	1.07
GCCGGGTTA	1.06
GCCGGTTTAT	0.967
GCCGGTTTG	1.02
GCCGTAACTC	1.05
GCCGTAAGTT	1.03

Sequence	switch fluorescence ratio
GCCGTAGCGT	1.06
GCCGTCAGTG	0.986
GCCGTCTTTT	0.985
GCCGTGACCC	1.02
GCCGTGACCG	1.04
GCCGTGATTG	0.991
GCCGTGGCCA	1.01
GCCGTGTTGA	1.04
GCCGTTGGCC	1.02
GCCGTTTCGA	0.986
GCCTAAGAAT	0.938
GCCTAAGTAG	0.995
GCCTAATTAA	1.03
GCCTACGAAG	1.05
GCCTAGCTCG	1.04
GCCTCAAAAT	1.06
GCCTCAGTGC	1.01
GCCTCCACCC	1.24
GCCTCGTAAA	1.01
GCCTGAAGAT	0.973
GCCTGAATTA	1
GCCTGCCGTC	1.04
GCCTGCGATA	1.48
GCCTGCGCCC	1.3
GCCTGCTCC	1.18

Sequence	switch fluorescence ratio
GCCTGGATCA	1.03
GCCTGGGTTT	0.96
GCCTGGTTGC	1.03
GCCTTAAGGT	1.07
GCCTTAATCA	0.972
GCCTTAGTTC	0.965
GCCTTCAAAC	1.13
GCCTTCATGT	0.965
GCCTTCCAAC	3.22
GCCTTCCAGA	1.39
GCCTTCCGCC	4.7
GCCTTGACCC	1.02
GCCTTGGCGA	0.999
GCCTTTAACG	1.08
GCCTTTACT	0.998
GCCTTTGCGC	1
GCCTTTTACT	1
GCGAAAATAT	0.976
GCGAAAGTGT	1
GCGAAATATC	1.71
GCGAAGAAGC	1.03
GCGAAGGCCC	0.984
GCGAAGGCGC	1.03
GCGACAATTA	1.13
GCGACCAGTG	1.19

Sequence	switch fluorescence ratio
GCGACGAAAT	2.32
GCGACTATTG	0.976
GCGACTATTT	0.985
GCGACTGAGT	0.997
GCGAGAGACA	1.05
GCGAGAGAGC	1.01
GCGAGAGGCT	1.04
GCGAGAGTAA	1.06
GCGAGGATGT	1.01
GCGAGGTTG	0.99
GCGAGTTCCA	1.01
GCGATAGGTA	1
GCGATATTAT	0.999
GCGATCAAAG	0.96
GCGATGAGGT	1.02
GCGCAAAGTG	1.03
GCGCAAGGCG	1.07
GCGCACGAGC	1.04
GCGCAGTATA	1.07
GCGCAGTCTA	1.03
GCGCATAATT	1.01
GCGCATACTG	2.23
GCGCATGAAT	0.958
GCGCATGACG	1.04
GCGCATTCG	1.05

Sequence	switch fluorescence ratio
GCGCCACGCG	0.978
GCGCCGCGTA	1.36
GCGCCTGGA	1.01
GCGCCTTGTT	1.03
GCGCGACGTC	1.01
GCGCGACTAA	1.26
GCGCTAAGTC	1.03
GCGCTAATCT	1.17
GCGCTATGTT	1.17
GCGCTATTCG	1.01
GCGCTCCGAT	1.24
GCGCTCTGCG	1.04
GCGCTGACCA	1.06
GCGCTTGGCC	0.994
GCGGAACGGC	0.947
GCGGACTTT	0.939
GCGGAGGCAT	1.03
GCGGAGTCGT	0.963
GCGGATAAAG	0.997
GCGGATGGT	0.964
GCGGATGGTT	1
GCGGCAGGGG	0.973
GCGGCCGCAA	0.991
GCGGCCTGG	1
GCGGCTATAT	1.13

Sequence	switch fluorescence ratio
GCGGGATGTA	0.937
GCGGGCAACT	1.01
GCGGGCGAAC	1
GCGGGCTGAT	1.02
GCGGGCTTC	1.03
GCGGGGTCA	1.03
GCGGGTAACG	0.985
GCGGGTTAT	0.994
GCGGGTTGAA	1.05
GCGGTAAAAC	1.04
GCGGTAACTA	1.01
GCGGTAGTGG	0.976
GCGGTCACAT	1
GCGGTCATTC	0.991
GCGGTGATTG	0.992
GCGGTGCGGT	0.972
GCGGTGGTCT	1.02
GCGGTGTGGA	0.987
GCGGTGTTTG	0.961
GCGGTTATGG	0.972
GCGGTTGAGA	1.01
GCGGTTGCCG	1.07
GCGGTTTGGG	0.954
GCGTAACGTA	0.999
GCGTAACTTG	1

Sequence	switch fluorescence ratio
GCGTAAGGTC	1.04
GCGTAAGTAA	0.98
GCGTAATTCG	1.02
GCGTACGGCA	1.01
GCGTAGGTAT	1.01
GCGTATATTT	1.05
GCGTATGAG	0.95
GCGTATGCGG	1.07
GCGTATTACT	1.22
GCGTCATTTT	0.968
GCGTCCCCGG	1.28
GCGTCCGAT	1.01
GCGTCCTATG	0.967
GCGTCGTCAG	1.04
GCGTCGTTGG	1.04
GCGTCTGCAG	1.02
GCGTCTGTGT	0.996
GCGTGAATTT	1.02
GCGTGCCCGA	1.01
GCGTGGAGTC	1.02
GCGTGGGGCT	1.01
GCGTGGGTCT	1.05
GCGTGGTGGG	1.05
GCGTGGTGT	1.05
GCGTGTACCT	1.05
